Results reported in PubChem BioAssay AID1476 (National Center for Advancing Translational Sciences (NCATS), 2009).
Out of some 200,000 compounds screened, about 4,500 (2.2%) were called active. The inconclusive results got no clear call from the source; some entries with a clear call stand among them for comparison. The call rests on the fitted dose curve; in most records, active means well fitted inhibition curve with a large enough effect; inconclusive means small, poorly fitted or top-dose-only effect, or effect the other way; inactive means flat fitted curve, though single readings scatter. Potencies of inconclusive entries are doubtful fits and often do not repeat.

Molecular target: Cruzipain (Trypanosoma cruzi) (UniProt P25779)
Sequence of UniProt P25779 (P25779 whole entry, looked up): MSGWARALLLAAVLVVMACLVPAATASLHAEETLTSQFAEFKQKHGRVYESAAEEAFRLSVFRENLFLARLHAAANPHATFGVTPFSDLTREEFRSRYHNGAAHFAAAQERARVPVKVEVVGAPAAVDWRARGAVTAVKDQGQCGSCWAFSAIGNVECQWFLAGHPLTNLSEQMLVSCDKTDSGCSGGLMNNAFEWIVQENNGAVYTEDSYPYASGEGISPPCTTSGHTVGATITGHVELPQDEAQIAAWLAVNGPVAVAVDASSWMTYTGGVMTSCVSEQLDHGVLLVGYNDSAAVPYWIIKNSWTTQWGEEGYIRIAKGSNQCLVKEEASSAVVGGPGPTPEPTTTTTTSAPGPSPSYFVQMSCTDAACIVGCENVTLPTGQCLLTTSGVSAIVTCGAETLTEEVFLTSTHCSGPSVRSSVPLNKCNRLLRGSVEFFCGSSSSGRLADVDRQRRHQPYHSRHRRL
Test: qHTS Assay for Promiscuous and Specific Inhibitors of Cruzain (without detergent); further: nearly all actives have a fitted effect of over 40% in size;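 on max response, negative = inhibition: plate controls were enzyme without inhibitor for no effect and buffer without enzyme for full effect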
Conditions: purified cruzain, Z-FR-AMC fluorescence, no detergent
How it was run: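 Detergent-free condition (0.00005% Triton X-100) in acetate buffer pH 5.5 with DTT. 1.5 nM enzyme and compound were pre-mixed 15 min, then 2 uM Z-FR-AMC substrate added; reaction progress from fluorescence change between first and third reads (60 s).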
Potency means the concentration at half of the fitted maximal effect; tags describe the fitted curve by direction and shape.

SMILES	Potency	max response, negative = inhibition
COc1ccc(-c2nc(-c3ccncc3)no2)cc1OC	inconclusive: 39.8 µM [activator, single point]	
c1csc(-c2nn3c(C4COc5ccccc5O4)nnc3s2)c1 (centres undefined)	inconclusive: 31.6 µM [inhibitor, single point]	
O=C(OCCN(C1=NS(=O)(=O)c2ccccc21)c1ccccc1Cl)c1ccc(Cl)cc1	inconclusive: 39.8 µM [inhibitor, single point]	
O=C(c1cccc(COc2ccc(Cl)cc2Cl)c1)N1CCN(c2ccccn2)CC1	inconclusive: 39.8 µM [activator, single point]	
Cc1c(-c2nsc(NC(=O)c3cccs3)n2)nnn1-c1ccc(Cl)cc1	inconclusive: 12.6 µM [inhibitor, single point]	
COc1cccc([C@@H]2Oc3ccc(Br)cc3C[C@H]2O)c1		inactive: -9.17%
C/C(=N/Nc1nc(-c2ccc(Cl)cc2)cs1)c1cccs1	active: 3.98 µM	
Cc1oc2ccc(O)c(CN3CCCCCC3)c2c1C(=O)Nc1cccc(Cl)c1C	inconclusive: 39.8 µM [inhibitor, single point]	
COc1ccc(OCC(=O)Nc2nnc(-c3ccco3)s2)cc1	inconclusive: 31.6 µM [inhibitor, single point]	
O=C(CCn1cccn1)NCc1ccc(Cl)cc1		inactive: -12%
CC(=O)c1cccc(NCc2ccccc2-c2nnc(-c3ccccc3)o2)c1		inactive: 1.76%
O=C1NC(=S)S/C1=C/c1ccc(N2CCOCC2)o1	inconclusive: 20 µM [inhibitor, single point]	
O=C(NC1(C(F)(F)F)NC(=O)N(CCc2ccccc2)C1=O)c1ccccc1Cl (centres undefined)		inactive: -3.58%
Cc1ccc(N2C(=O)NC(=O)C3(Cc4ccccc4N4CCN(c5ccccc5)CC43)C2=O)cc1 (centres undefined)	inconclusive: 39.8 µM [activator, single point]	
Nc1ccc(-c2ccc(N)c(O)c2)cc1O	inconclusive: 3.16 µM [inhibitor, full curve, poor fit]	
CCOC(=O)C1CCCN(C(=O)c2c(C)nn(-c3ccc(F)cc3)c2-n2cccc2)C1 (centres undefined)	inconclusive: 31.6 µM [activator, partial curve]	
O=C(Nc1ccc2c(c1)CCC2)c1cccc(S(=O)(=O)N2CCN(c3ccccc3)CC2)c1	active: 25.1 µM	
O=c1[nH]c(=O)n(Cc2ccccc2)c2nc(-c3ccc(Oc4ccc(F)cc4)c([N+](=O)[O-])c3)n(CCO)c12	inconclusive: 25.1 µM [activator, single point]	
CCCCCCn1c(N2CCC(C)CC2)nc2c1c(=O)[nH]c(=O)n2C	inconclusive: 31.6 µM [activator, single point]	
O=C1C2CC=C(Cl)CC2C(=O)N1CCCCCCN1C(=O)C2CC=C(Cl)CC2C1=O (centres undefined)	inconclusive: 39.8 µM [activator, single point]	
Cc1ccc(NC(=O)CSc2nnc3[nH]c(=O)cc(C)n23)cc1Cl		inactive: -3.39%
Cc1sc2c(c1C)c(=O)n(-c1ccccc1)c(=O)n2CC(=O)c1ccc(Cl)cc1	inconclusive: 25.1 µM [inhibitor, single point]	

SMILES	Potency	max response, negative = inhibition
CSCCC(NC(=O)c1ccc(Cl)cc1)C(=O)OCC(=O)Nc1cc(Cl)ccc1C (centres undefined)	inconclusive: 20 µM [inhibitor, single point]	
Cc1nc(-c2cccc(NS(=O)(=O)c3cccc4ccccc34)c2)cs1	inconclusive: 39.8 µM [inhibitor, single point]	
Cc1cccc(Nc2nc(-c3ccccc3)c3cc(C)ccc3n2)c1		inactive: -29.4%
CCC(=O)N1c2ccccc2CC1C(=O)NCCN1CCN(c2cccc(C)c2C)CC1 (centres undefined)		inactive: -3.97%
COc1cc(/C=N/c2oc(-c3ccccc3)cc2C#N)ccc1O	inconclusive: 39.8 µM [activator, single point]	
Cc1c(C(=O)Oc2ccc(-c3cnc4ccccc4n3)cc2)cccc1[N+](=O)[O-]	inconclusive: 15.8 µM [inhibitor, partial curve]	
COc1ccccc1N1CCN(C(=O)CSc2nc3ccccc3nc2Cc2ccc(F)cc2)CC1		inactive: 0.424%
O=C(Cn1c(=O)n(-c2ccc(Cl)cc2)c(=O)c2c3c(sc21)CCC3)c1ccc(F)cc1		inactive: 4.76%
CC(C)(C)C1CCc2c(sc(NC(=O)Cn3nnc(-c4cccc(C(F)(F)F)c4)n3)c2C#N)C1 (centres undefined)		inactive: -17.1%
Cn1c(CNC(=O)CSc2n[nH]c(-c3ccccc3)n2)nc2ccccc21		inactive: 1.91%
Cc1ccc(/C(O)=C/C(=O)C(=O)NNC(=O)C(O)(c2ccccc2)c2ccccc2)cc1	inconclusive: 39.8 µM [inhibitor, single point]	
Cc1ccc(C(=O)Nc2ccc3c(c2)N(C)C(=O)c2ccccc2S3)cc1		inactive: 0.985%
O=C(NCc1ccco1)c1n[nH]c(=O)c2ccccc12		inactive: 2.27%
COc1cccc(NC(=O)CN(C)S(=O)(=O)c2cccs2)c1		inactive: -16%
O=C(COC(=O)c1ccc(Cl)c(S(=O)(=O)N2CCc3ccccc3C2)c1)Nc1ncc(Cl)cc1Cl	active: 20 µM	
CCC(=O)N1CCc2cc(CNC(=O)Nc3ccccc3Cl)ccc21	inconclusive: 39.8 µM [activator, single point]	
CCOc1cc(C#N)c(NC(=O)c2cccc(S(=O)(=O)N3CCOCC3)c2)cc1OCC	inconclusive: 39.8 µM [activator, single point]	
O=C(NC(=S)N1CCN(c2c(Cl)cccc2[N+](=O)[O-])CC1)c1cccs1	inconclusive: 39.8 µM [inhibitor, single point]	
c1ccc(-n2cnnc2SCc2nc3ccccc3s2)cc1	active: 10 µM	
Cc1ccc(CNC(=O)c2sc3nc4n(c(=O)c3c2C)CCCC4)cc1		inactive: -4.7%
O=c1c2c3c(sc2n2cnnc2n1Cc1ccccc1)CN(Cc1ccccc1)CC3	inconclusive: 3.16 µM [inhibitor, partial curve]	
C/C(CCN1CCc2nc(-c3ccccc3)c(-c3ccccc3)cc2C1)=N\O[C@@H](C)c1cn([C@H](CO)Cc2ccccc2)nn1	inconclusive: 39.8 µM [activator, single point]	
